Experimental data: publication PMC4336329 (PLoS ONE, 2015)
In all, about 310,000 compounds went through this assay and about 14,000 (4.5%) showed an effect of 50% or more. Effects have a minus sign here. The list shows a part of the results.

These molecules were tested against human ether-à-go-go-related gene (hERG) potassium channel (human, UniProt Q12809) (assay: primary screen, population patch clamp on CHO cells stably expressing hERG).
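Further: peak tail current of the secondary pulse compared with the same well before compound.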

Sequence of human ether-à-go-go-related gene (hERG) potassium channel (Q12809 whole entry, looked up): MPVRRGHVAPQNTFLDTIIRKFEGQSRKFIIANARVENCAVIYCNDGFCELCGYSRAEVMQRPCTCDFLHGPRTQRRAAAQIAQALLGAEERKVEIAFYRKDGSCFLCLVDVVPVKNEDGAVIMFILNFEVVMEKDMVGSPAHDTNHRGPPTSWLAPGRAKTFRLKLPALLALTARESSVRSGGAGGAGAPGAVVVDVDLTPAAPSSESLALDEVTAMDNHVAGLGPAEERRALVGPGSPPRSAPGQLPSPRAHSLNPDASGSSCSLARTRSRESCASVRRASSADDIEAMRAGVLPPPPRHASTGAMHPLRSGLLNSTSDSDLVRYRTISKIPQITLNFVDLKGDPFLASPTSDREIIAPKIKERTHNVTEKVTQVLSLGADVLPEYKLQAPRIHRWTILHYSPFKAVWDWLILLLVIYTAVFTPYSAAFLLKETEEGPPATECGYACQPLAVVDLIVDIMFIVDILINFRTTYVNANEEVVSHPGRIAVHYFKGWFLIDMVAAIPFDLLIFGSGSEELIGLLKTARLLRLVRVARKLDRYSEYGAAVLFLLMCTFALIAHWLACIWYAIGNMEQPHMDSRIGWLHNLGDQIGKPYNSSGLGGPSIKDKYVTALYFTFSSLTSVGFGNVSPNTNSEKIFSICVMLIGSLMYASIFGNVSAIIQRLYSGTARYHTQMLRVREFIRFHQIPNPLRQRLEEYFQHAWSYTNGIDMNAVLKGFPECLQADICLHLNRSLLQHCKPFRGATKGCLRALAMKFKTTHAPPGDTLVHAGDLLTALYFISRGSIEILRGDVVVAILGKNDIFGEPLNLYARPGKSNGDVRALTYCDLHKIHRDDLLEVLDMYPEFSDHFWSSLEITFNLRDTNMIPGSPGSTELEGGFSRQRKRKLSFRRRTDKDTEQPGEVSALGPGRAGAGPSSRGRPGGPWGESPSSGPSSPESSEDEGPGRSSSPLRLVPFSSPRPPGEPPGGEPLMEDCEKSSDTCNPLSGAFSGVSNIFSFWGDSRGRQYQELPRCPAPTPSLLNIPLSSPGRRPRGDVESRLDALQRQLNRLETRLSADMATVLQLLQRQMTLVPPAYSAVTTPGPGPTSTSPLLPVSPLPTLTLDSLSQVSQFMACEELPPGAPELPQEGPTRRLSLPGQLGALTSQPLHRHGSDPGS

Structure (SMILES)	hERG current change (%, negative = inhibition) at 10uM [%]
Cc1ccc(NC(=O)CS(=O)CC(=O)N(CC(=O)NC2CCCC2)c2cccc(C)c2C)cc1 (centres unmarked)	-24.3
COC(=O)c1cccc(NS(=O)(=O)c2ccc(OC)cc2)c1C	-1.48
COc1ccc(OC)c(Cc2nnc(CCC(=O)NCc3ccsc3)o2)c1	-2
COc1cccc(C(=O)OCc2cc(=O)oc3c(C)c(C)ccc23)c1OC	-0.395
CCCC(=O)Nc1nc2nc(C)cc(=O)n2[nH]1	1.2
O=C(NCCCN1CCOCC1)c1ccc(CS(=O)(=O)c2ccc(Br)cc2)o1	-6.32
COC(=O)c1ccc(NC(=S)NC(=O)c2cccnc2)cc1	19.5
CCOC(=O)C(Cc1ccc(NC(=O)/C(=C\c2ccccc2)NC(=O)c2ccccc2)cc1)N1C(=O)c2ccccc2C1=O (centres unmarked)	13.3
COc1ccc(CN2CCN(Cc3ccccc3OC)CC2)cc1.O=C(O)C(=O)O	2.68
CCC(=O)Nc1cccc(C2=NOC3(C2)C[C@@H](C(N)=O)N(C(=O)c2cc([N+](=O)[O-])cc([N+](=O)[O-])c2)C3)c1 (some centres unmarked)	10.7
CCN(CC)S(=O)(=O)c1cc(NC(=O)CN2C(=O)NC(C)(c3ccccc3)C2=O)ccc1C (centres unmarked)	-16.8
O=C(CSc1nc2c(cnn2-c2ccccc2)c(=O)[nH]1)N1CCOCC1	-14.5
OCCC1CN(Cc2cnn(-c3ccc(F)cc3)c2)CCN1Cc1ccsc1 (centres unmarked)	-65.7
COc1cc(C[C@@H](CO)[C@H](CO)Cc2ccc(O)c(OC)c2)ccc1O	-8.47
O=C(Cn1c(SCc2ccccc2)nc2ccccc21)N1CCOCC1	3.15
COc1ccc(CNC(=O)[C@@H](NC(=O)C2CCN(S(=O)(=O)c3ccc(C)cc3)CC2)C(C)C)cc1OC	15.4
COc1ccc(C(=O)Nc2cc(Cl)cc(Cl)c2)c(OC)n1	12.9
COc1ccc(C(=O)OCC(=O)c2ccccc2)cc1S(=O)(=O)N1CCOCC1	-14.7
COc1ccc(NC(=O)CSCC(=O)NC2(C)CCS(=O)(=O)C2)cc1 (centres unmarked)	25.3
O=C(NCCCn1ccnc1)/C(=C/c1ccco1)NC(=O)c1ccco1	-45.6
O=C(Nc1nccs1)c1cc(N2CCOCC2)nc2ccccc12	-4.9
CCc1ccc(OCC(=O)O/N=C(\N)c2cccnc2)cc1	-0.434

Structure (SMILES)	hERG current change (%, negative = inhibition) at 10uM [%]
NC(=O)c1cc(S(=O)(=O)N2CCOCC2)cs1	19.3
Cn1nnnc1SCC(=O)N1CCN(C(=O)c2ccco2)CC1	-9.62
CC(=O)NCCc1ccc(S(=O)(=O)NCc2ccc3c(c2)OCO3)cc1	2.45
CCc1nnc(NC(=O)CSc2nnc(C)n2-c2ccc(C)cc2)s1	-0.562
O=C(CSc1c(Cl)cccc1Cl)NC1CCCc2ccccc21 (centres unmarked)	1.5
c1ccc2nc(N3CCCC3)c(N3CCCC3)nc2c1	7.86
C=CCSc1nc2c(c(=O)[nH]1)C(c1ccccc1)C(C#N)=C(N)O2 (centres unmarked)	2.58
OC1CCN(Cc2ccc(OCc3ccccc3)cc2)CC1	-5.07
Cn1ccnc1C(O)c1cccc(OCc2ccccc2)c1 (centres unmarked)	-0.621
CC1CCCC(C)N1C(=O)COC(=O)c1ccc(F)c(S(=O)(=O)N2CCOCC2)c1 (centres unmarked)	9.83
NS(=O)(=O)c1cccc(NC(=O)CSc2nc3ccccc3n2-c2ccccc2)c1	13.2
O=C(CSc1ccc(F)cc1)Nc1ccc(Br)cc1	16.2
COc1ccc(C(=O)NNC(=O)CCn2nnc(-c3ccc(Cl)cc3)n2)cc1OC	19
COc1ccccc1NS(=O)(=O)c1cccc(NC(=O)c2nc3nc(C)cc(C)n3n2)c1	-55.2
CCCn1c(C)cc(C(=O)CN2C(=O)c3cccc(N)c3C2=O)c1C	-1.83
C[C@@H](NC(=O)[C@@H]1Cc2ccccc2CN1C(=O)OC(C)(C)C)C(=O)NC1CCCC1	-7.3
CC(C)(O)[C@H]1O[C@H]2CC[C@@]3(C)[C@@](O)(CC[C@H]4Cc5c([nH]c6ccccc56)[C@@]43C)C2=CC1=O	15.2
CCn1c(=O)c2cc(C(=O)Nc3ccc(OC)cc3OC)sc2c2ccccc21	6.99
CCC(C)(C)C1CCc2nc3ccccc3c(C(=O)OC(C)C(=O)Nc3c(C)n(C)n(-c4ccccc4)c3=O)c2C1 (centres unmarked)	7.37
O=C(c1nnc(-c2ccc(Cl)cc2)o1)C1CCCC1	20.2
O=C1S/C(=C\C=C\c2ccco2)C(=O)N1c1ccc(O)cc1	12.1
COc1ccc2c(c1)O[C@@]1(CCCC[C@@H]1C)CC2=O	-1.09

Structure (SMILES)	hERG current change (%, negative = inhibition) at 10uM [%]
CCC(=O)NC(=S)NNC(=O)c1ccccc1[N+](=O)[O-]	21.2
CN1CCN(C(=O)CCc2nc3ccccc3c(=O)[nH]2)CC1	21.9
COc1ccc(/[N+]([O-])=C/c2ccoc2)cc1	18.9
Cc1ccc(NC(=O)CSc2nnc(CNC(=O)c3c(F)cccc3Cl)o2)cc1	3.28
CC(C)c1ccc(NC(=O)C(c2ccccc2)N2CCOCC2)cc1 (centres unmarked)	-12.2
O=S(=O)(c1ccc(F)c(F)c1F)N1CCN(C(=S)NCc2ccccc2)CC1	21.3
COc1cc(-c2cc3nc4ccccc4n3c(N)c2C#N)cc(OC)c1OC	-12.9
O=C(N/N=C/c1ccc(-c2cccc(C(F)(F)F)c2)o1)c1ccccc1Br	3.21
O=C(c1ccco1)N1CCN(Cc2nnc(-c3ccccc3)o2)CC1	-55.5
O=C(c1ccco1)N1CCN(Cc2cc(=O)c(OCc3ccc([N+](=O)[O-])cc3)co2)CC1	-76.2
N#C/C(=C\c1ccc(-c2cccc([N+](=O)[O-])c2)o1)C(=O)N1CCOCC1	-6.75
Cc1cc(C)cc(-n2c(=O)c3sccc3n(CC(=O)NCc3ccco3)c2=O)c1	-9
COc1ccccc1C(=O)Nc1ccc2c(c1)nc(CCNC(=O)c1ccccc1)n2C	-10.4
CC1(C)CC(C(CC(=O)Nc2nccs2)c2ccccc2)CCO1 (centres unmarked)	14.5
COc1cc(OC)cc(C(=O)NC2CCN(C(=O)N3c4ccccc4Sc4ccccc43)CC2)c1	19.5
CC(=O)Nc1ccc(N=NN2CCOCC2)cc1	9.81
Cc1ccc(-c2ccc(C(=O)O)[nH]2)cc1	-19.1
CCCC(=O)Nc1nn(C)c2nc3cc(C)ccc3cc12	-4.77
O=C(CSc1nccn1-c1cccc(Cl)c1)NC1CCCC1	1.72
COC(=O)C(Cc1ccccc1)NC(=S)NC(=O)c1ccccc1 (centres unmarked)	4.48
Cc1cc(=O)oc2c1ccc1ccccc12	18.7
Cc1cc(NC(=O)CSc2nnc(-c3ccncc3)n2-c2ccccc2)no1	28.1

Structure (SMILES)	hERG current change (%, negative = inhibition) at 10uM [%]
COCCNC(=O)C1CCN(S(=O)(=O)c2ccc3c(c2)OCCO3)CC1	6.57
CC(=O)/C(=C(/O)c1ccccc1)c1nc2ccccc2[nH]1	4.78
CC1(C)NC(=O)N(CC(O)COc2ccccc2C(=O)N2CCCCC2)C1=O (centres unmarked)	-0.085
Cc1c(N=C2NC(=O)/C(=C/c3ccc(O)cc3)S2)c(=O)n(-c2ccccc2)n1C	6.71
COc1ccc(C(=O)Cn2c(C)nc([N+](=O)[O-])c2Br)cc1	-18.7
COc1ccc(CC(=O)Nc2ccc(/C(C)=N/NC(=O)c3ccc(OC)cc3OC)cc2)cc1	28.2
COc1ccccc1-n1c(SCC(N)=O)nnc1-c1ccccc1	-9.6
COc1cccc(C(=O)Nc2cccc(C(=O)NCC(C)C)c2)c1	-42.5
C=CCNC(=S)Nc1ccc(C(N)=O)cc1	20.3
Nc1nc(SCC(=O)Nc2ccc([N+](=O)[O-])cc2)[nH]c(=O)c1NC(=O)c1ccc(Br)o1	17.1
Cc1csc2nc(NC(=O)c3ccccc3)sc(=O)c12	4.69
O=c1[nH]c(=O)c2cn[nH]c2[nH]1	1.77
O=C(Nc1ccc(-n2cccn2)cc1)C1CCCCN1Cc1cccc2cccnc12 (centres unmarked)	-35.3
COc1cccc(OC)c1OC(=O)c1cnccn1	16.1
CCOc1ccc(CN(C)CC(=O)Nc2ccc([N+](=O)[O-])cc2Cl)cc1	8.88
CC(=O)c1cccc(NC(=O)Cn2cnc(S(=O)(=O)N3CCC(C)CC3)c2)c1	7.69
Cc1onc(-c2ccccc2)c1C(=O)N/N=C/c1cccc(O)c1	1.94
Cc1cc(=O)[nH]c2cc(Cl)ccc12	9.51
O=C(CNC(=O)COc1ccccc1)NCCc1ccccn1	13.3
COc1ccc(C(=O)NOCc2ccccc2)cc1	4.61
